# Results as given in the supplement of paper PMC12645437, “Orthogonal IMiD-Degron Pairs Induce Selective Protein Degradation in Cells” (ACS Chemical Biology, 2025).
# The other results are listed elsewhere or left out.
# Molecular target: no compound (DMSO)
# Assay: log2 fold change of degron read counts, EGFP-low vs EGFP+ sorted cells; higher = lower degron-EGFP level without compound (poor expression or instability)
# Conditions: compound: DMSO control; 18 h
# 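Note: jurkat cells carrying a lentiviral library of mutant zinc finger degrons fused to EGFP plus mCherry, mCherry+ cells FACS sorted, degron abundance counted by next-generation sequencing.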
row,Sequence,log2 fold change of degron read counts
1,FLCEVCGAQFTQKGNLLRHIKL,-1.99
2,FFCNQCGRIFTQKGNLLRHIKL,1.28
3,FVCEICGRDFTQKGNLLRHIKL,-2.35
4,FECPVCGAEFTQKGNLLRHIKL,-1.74
5,FECNVCGAHFTQKGNLLRHIKL,-2.44
6,FNCDICGAMFTQKGNLLRHIKL,-0.623
7,FTCPICGHDFTQKGNLLRHIKL,-1.71
8,FNCPQCGAQFTQKGNLLRHIKL,-0.705
9,FGCDVCGAGFTQKGNLLRHIKL,-1.07
10,FHCEICGAFFTQKGNLLRHIKL,-1.2
11,FCCNQCGRSFTQKGNLLRHIKL,-0.178
12,LMCNQCGFQCTQKGNLLRHIKL,0.429
13,FTCPVCGAHFTQKGNLLRHIKL,-0.102
14,LGCPICGFACTQKGNLLRHIKL,1.32
